# Paper PMC5540273 (PLoS ONE, 2017)
# For some assays here: What follows is the remainder of the data, with few or none of the strong results. The list shows a part of the results, in another mix than the full data.
# Tests used:
# Details in all cases: concentration: 1 μM,replicates: in singlicate; n = 1
# DRAK2 = test system: T1, DRAK2
# T1 construct: gene STK17B
# DYRK1A = test system: DYRK1A
# DYRK1B = test system: DYRK1B
# DYRK2 = test system: DYRK2
# EGFR = test system: EGFR
# EIF2AK1 = test system: EIF2AK1
# EPHA1 = test system: EPHA1
# EPHA2 = test system: EPHA2
# EPHA3 = test system: EPHA3
# EPHA4 = test system: EPHA4
# EPHA5 = test system: EPHA5
# EPHA6 = test system: EPHA6
# EPHA7 = test system: EPHA7
# EPHA8 = test system: EPHA8
# EPHB1 = test system: EPHB1
# EPHB2 = test system: EPHB2
# EPHB3 = test system: EPHB3
# EPHB4 = test system: EPHB4
# EPHB6 = test system: EPHB6
# ERBB2 = test system: ERBB2
# 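Further: KINOMEscan kinase panel screen.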
smiles,measurement,setting,value
COc1ccc(C2=C(Nc3cccc(Cl)c3)C(=O)NC2=O)cc1 [SB-326892],%Inh,DRAK2,0%
same,%Inh,DYRK1A,31%
same,%Inh,DYRK1B,23%
same,%Inh,DYRK2,17%
same,%Inh,EGFR,10%
same,%Inh,EIF2AK1,0%
same,%Inh,EPHA1,32%
same,%Inh,EPHA2,7%
same,%Inh,EPHA3,0%
same,%Inh,EPHA4,20%
same,%Inh,EPHA5,0%
same,%Inh,EPHA6,15%
same,%Inh,EPHA7,0%
same,%Inh,EPHA8,0%
same,%Inh,EPHB1,2%
same,%Inh,EPHB2,0%
same,%Inh,EPHB3,14%
same,%Inh,EPHB4,29%
same,%Inh,EPHB6,18%
same,%Inh,ERBB2,8%
O=C1NC(=O)C(c2ccc(Cl)cc2)=C1Nc1cccc(C(=O)O)c1 [SB-360737],%Inh,DRAK2,0%
same,%Inh,DYRK1A,38%
same,%Inh,DYRK1B,0%
same,%Inh,DYRK2,23%
same,%Inh,EGFR,16%
same,%Inh,EIF2AK1,14%
same,%Inh,EPHA1,23%
same,%Inh,EPHA2,0%
same,%Inh,EPHA3,0%
same,%Inh,EPHA4,14%
same,%Inh,EPHA5,0%
same,%Inh,EPHA6,9%
same,%Inh,EPHA7,7%
same,%Inh,EPHA8,14%
same,%Inh,EPHB1,12%
same,%Inh,EPHB2,0%
same,%Inh,EPHB3,7%
same,%Inh,EPHB4,0%
same,%Inh,EPHB6,16%
same,%Inh,ERBB2,0%
O=C1NC(=O)c2c1c(-c1ccccc1)cc1[nH]c3ccc(O)cc3c21,%Inh,DRAK2,42%
same,%Inh,DYRK1A,37%
same,%Inh,DYRK1B,2%
same,%Inh,DYRK2,88%
same,%Inh,EGFR,1%
same,%Inh,EIF2AK1,8%
same,%Inh,EPHA1,20%
same,%Inh,EPHA2,21%
same,%Inh,EPHA3,0%
same,%Inh,EPHA4,0%
same,%Inh,EPHA5,12%
same,%Inh,EPHA6,10%
same,%Inh,EPHA7,0%
same,%Inh,EPHA8,0%
same,%Inh,EPHB1,0%
same,%Inh,EPHB2,0%
same,%Inh,EPHB3,15%
same,%Inh,EPHB4,16%
same,%Inh,EPHB6,90.5%
same,%Inh,ERBB2,11%
O=C1NC(=O)C(c2ccccc2)=C1Nc1cc(Cl)c(O)c(Cl)c1 [SB-390530],%Inh,DRAK2,4%
same,%Inh,DYRK1A,18%
same,%Inh,DYRK1B,3%
same,%Inh,DYRK2,14%
same,%Inh,EGFR,0%
same,%Inh,EIF2AK1,0%
same,%Inh,EPHA1,0%
same,%Inh,EPHA2,0%
same,%Inh,EPHA3,0%
same,%Inh,EPHA4,23%
same,%Inh,EPHA5,0%
same,%Inh,EPHA6,11%
same,%Inh,EPHA7,15%
same,%Inh,EPHA8,13%
same,%Inh,EPHB1,13%
same,%Inh,EPHB2,1%
same,%Inh,EPHB3,10%
same,%Inh,EPHB4,12%
same,%Inh,EPHB6,56%
same,%Inh,ERBB2,0%
CSc1ccc(NC2=C(c3cccc(Cl)c3)C(=O)NC2=O)cc1 [SB-341528],%Inh,DRAK2,7%
same,%Inh,DYRK1A,5%
same,%Inh,DYRK1B,0%
same,%Inh,DYRK2,0%
same,%Inh,EGFR,2%
same,%Inh,EIF2AK1,1%
same,%Inh,EPHA1,13%
same,%Inh,EPHA2,35%
same,%Inh,EPHA3,21%
same,%Inh,EPHA4,0%
same,%Inh,EPHA5,0%
same,%Inh,EPHA6,0%
same,%Inh,EPHA7,0%
same,%Inh,EPHA8,0%
same,%Inh,EPHB1,0%
same,%Inh,EPHB2,9%
same,%Inh,EPHB3,3%
same,%Inh,EPHB4,0%
same,%Inh,EPHB6,15%
same,%Inh,ERBB2,0%
O=C1NC(=O)C(c2ccccc2Cl)=C1Nc1cccc(C(=O)O)c1 [SB-390526],%Inh,DRAK2,0%
same,%Inh,DYRK1A,49%
same,%Inh,DYRK1B,22%
same,%Inh,DYRK2,14%
same,%Inh,EGFR,12%
same,%Inh,EIF2AK1,10%
same,%Inh,EPHA1,3%
same,%Inh,EPHA2,14%
same,%Inh,EPHA3,0%
same,%Inh,EPHA4,5%
same,%Inh,EPHA5,0%
same,%Inh,EPHA6,9%
same,%Inh,EPHA7,2%
same,%Inh,EPHA8,0%
same,%Inh,EPHB1,4%
same,%Inh,EPHB2,0%
same,%Inh,EPHB3,13%
same,%Inh,EPHB4,22%
same,%Inh,EPHB6,22%
same,%Inh,ERBB2,0%
CS(=O)(=O)c1ccccc1-c1nc(-c2ccc(F)cc2)c(-c2ccncc2)[nH]1 [SB-213663],%Inh,DRAK2,0%
same,%Inh,DYRK1A,8%
same,%Inh,DYRK1B,33%
same,%Inh,DYRK2,7%
same,%Inh,EGFR,48%
same,%Inh,EIF2AK1,0%
same,%Inh,EPHA1,0%
same,%Inh,EPHA2,9%
same,%Inh,EPHA3,39%
same,%Inh,EPHA4,0%
same,%Inh,EPHA5,6%
same,%Inh,EPHA6,35%
same,%Inh,EPHA7,0%
same,%Inh,EPHA8,13%
same,%Inh,EPHB1,0%
same,%Inh,EPHB2,0%
same,%Inh,EPHB3,0%
same,%Inh,EPHB4,0%
same,%Inh,EPHB6,10%
same,%Inh,ERBB2,44%
O=C1NC(=O)C(c2ccccc2)=C1Nc1ccc(Cl)c(C(=O)O)c1 [SB-390532],%Inh,DRAK2,0%
same,%Inh,DYRK1A,17%
same,%Inh,DYRK1B,0%
same,%Inh,DYRK2,0%
same,%Inh,EGFR,30%
same,%Inh,EIF2AK1,0%
same,%Inh,EPHA1,26%
same,%Inh,EPHA2,16%
same,%Inh,EPHA3,0%
same,%Inh,EPHA4,0%
same,%Inh,EPHA5,0%
same,%Inh,EPHA6,6%
same,%Inh,EPHA7,3%
same,%Inh,EPHA8,2%
same,%Inh,EPHB1,2%
same,%Inh,EPHB2,14%
same,%Inh,EPHB3,13%
same,%Inh,EPHB4,10%
same,%Inh,EPHB6,20%
same,%Inh,ERBB2,35%
Cc1cc(C)cc(Oc2nccc(-c3c(-c4ccc(F)cc4)ncn3C3CCNCC3)n2)c1.O=C(O)C(F)(F)F.O=C(O)C(F)(F)F.O=C(O)C(F)(F)F [SB-284851],%Inh,DRAK2,15%
same,%Inh,DYRK1A,0%
same,%Inh,DYRK1B,6%
same,%Inh,DYRK2,0%
same,%Inh,EGFR,26%
same,%Inh,EIF2AK1,0%
same,%Inh,EPHA1,17%
same,%Inh,EPHA2,0%
same,%Inh,EPHA3,0%
same,%Inh,EPHA4,1%
same,%Inh,EPHA5,0%
same,%Inh,EPHA6,2%
same,%Inh,EPHA7,16%
same,%Inh,EPHA8,23%
same,%Inh,EPHB1,9%
same,%Inh,EPHB2,10%
same,%Inh,EPHB3,12%
same,%Inh,EPHB4,3%
same,%Inh,EPHB6,0%
same,%Inh,ERBB2,85%
O=C1NC(=O)C(c2ccc(Cl)cc2)=C1Nc1cccc(O)c1 [SB-333613],%Inh,DRAK2,16%
same,%Inh,DYRK1A,58%
same,%Inh,DYRK1B,0%
same,%Inh,DYRK2,23%
same,%Inh,EGFR,9%
same,%Inh,EIF2AK1,15%
same,%Inh,EPHA1,0%
same,%Inh,EPHA2,0%
same,%Inh,EPHA3,27%
same,%Inh,EPHA4,0%
same,%Inh,EPHA5,0%
same,%Inh,EPHA6,0%
same,%Inh,EPHA7,0%
same,%Inh,EPHA8,0%
same,%Inh,EPHB1,0%
same,%Inh,EPHB2,1%
same,%Inh,EPHB3,0%
same,%Inh,EPHB4,0%
same,%Inh,EPHB6,38%
same,%Inh,ERBB2,10%
O=C1NC(=O)C(c2ccc(Cl)cc2)=C1Nc1ccccc1 [SB-317661],%Inh,DRAK2,0%
same,%Inh,DYRK1A,0%
same,%Inh,DYRK1B,24%
same,%Inh,DYRK2,49%
same,%Inh,EGFR,12%
same,%Inh,EIF2AK1,0%
same,%Inh,EPHA1,0%
same,%Inh,EPHA2,0%
same,%Inh,EPHA3,11%
same,%Inh,EPHA4,0%
same,%Inh,EPHA5,0%
same,%Inh,EPHA6,0%
same,%Inh,EPHA7,0%
same,%Inh,EPHA8,0%
same,%Inh,EPHB1,1%
same,%Inh,EPHB2,0%
same,%Inh,EPHB3,0%
same,%Inh,EPHB4,0%
same,%Inh,EPHB6,0%
same,%Inh,ERBB2,19%
O=C(O)c1ccc(-c2nc(-c3ccc(F)cc3)c(-c3ccncc3)[nH]2)cc1 [SB-202620],%Inh,DRAK2,4%
same,%Inh,DYRK1A,0%
same,%Inh,DYRK1B,2%
same,%Inh,DYRK2,13%
same,%Inh,EGFR,76%
same,%Inh,EIF2AK1,0%
same,%Inh,EPHA1,0%
same,%Inh,EPHA2,0%
same,%Inh,EPHA3,27%
same,%Inh,EPHA4,25%
same,%Inh,EPHA5,22%
same,%Inh,EPHA6,30%
same,%Inh,EPHA7,0%
same,%Inh,EPHA8,0%
same,%Inh,EPHB1,21%
same,%Inh,EPHB2,10%
same,%Inh,EPHB3,23%
same,%Inh,EPHB4,13%
same,%Inh,EPHB6,51%
same,%Inh,ERBB2,22%
Cc1ccc(C)c(Oc2nccc(-c3c(-c4ccc(F)cc4)ncn3C3CCNCC3)n2)c1.O=C(O)C(F)(F)F.O=C(O)C(F)(F)F.O=C(O)C(F)(F)F [SB-284852],%Inh,DRAK2,10%
same,%Inh,DYRK1A,0%
same,%Inh,DYRK1B,13%
same,%Inh,DYRK2,0%
same,%Inh,EGFR,47%
same,%Inh,EIF2AK1,0%
same,%Inh,EPHA1,31%
same,%Inh,EPHA2,22%
same,%Inh,EPHA3,0%
same,%Inh,EPHA4,16%
same,%Inh,EPHA5,7%
same,%Inh,EPHA6,10%
same,%Inh,EPHA7,0%
same,%Inh,EPHA8,7%
same,%Inh,EPHB1,7%
same,%Inh,EPHB2,18%
same,%Inh,EPHB3,15%
same,%Inh,EPHB4,52%
same,%Inh,EPHB6,0%
same,%Inh,ERBB2,90%
O=C1NC(=O)C(c2ccccc2Cl)=C1Nc1ccccc1 [SB-376715],%Inh,DRAK2,0%
same,%Inh,DYRK1A,43%
same,%Inh,DYRK1B,22%
same,%Inh,DYRK2,11%
same,%Inh,EGFR,11%
same,%Inh,EIF2AK1,0%
same,%Inh,EPHA1,0%
same,%Inh,EPHA2,8%
same,%Inh,EPHA3,12%
same,%Inh,EPHA4,0%
same,%Inh,EPHA5,0%
same,%Inh,EPHA6,0%
same,%Inh,EPHA7,0%
same,%Inh,EPHA8,0%
same,%Inh,EPHB1,7%
same,%Inh,EPHB2,0%
same,%Inh,EPHB3,0%
same,%Inh,EPHB4,0%
same,%Inh,EPHB6,11%
same,%Inh,ERBB2,14%
COc1cccc(C2=C(Nc3ccc(SC)cc3)C(=O)NC2=O)c1 [SB-331032],%Inh,DRAK2,0%
same,%Inh,DYRK1A,44%
same,%Inh,DYRK1B,8%
same,%Inh,DYRK2,35%
same,%Inh,EGFR,11%
same,%Inh,EIF2AK1,0%
same,%Inh,EPHA1,0%
same,%Inh,EPHA2,0%
same,%Inh,EPHA3,25%
same,%Inh,EPHA4,0%
same,%Inh,EPHA5,12%
same,%Inh,EPHA6,6%
same,%Inh,EPHA7,0%
same,%Inh,EPHA8,2%
same,%Inh,EPHB1,21%
same,%Inh,EPHB2,17%
same,%Inh,EPHB3,5%
same,%Inh,EPHB4,0%
same,%Inh,EPHB6,13%
same,%Inh,ERBB2,7%
O=C1NC(=O)C(c2ccc(Cl)cc2)=C1Nc1ccc(O)c(Cl)c1 [SB-405367],%Inh,DRAK2,0%
same,%Inh,DYRK1A,26%
same,%Inh,DYRK1B,0%
same,%Inh,DYRK2,0%
same,%Inh,EGFR,9%
same,%Inh,EIF2AK1,10%
same,%Inh,EPHA1,1%
same,%Inh,EPHA2,18%
same,%Inh,EPHA3,1%
same,%Inh,EPHA4,0%
same,%Inh,EPHA5,26%
same,%Inh,EPHA6,0%
same,%Inh,EPHA7,0%
same,%Inh,EPHA8,0%
same,%Inh,EPHB1,0%
same,%Inh,EPHB2,8%
same,%Inh,EPHB3,1%
same,%Inh,EPHB4,0%
same,%Inh,EPHB6,24%
same,%Inh,ERBB2,0%
